Experimental data taken from PubChem BioAssay AID588342 (National Center for Advancing Translational Sciences (NCATS), 2011).
Screen size: about 360,000 compounds; about 25,000 (6.9%) were called active. This list was built around the results that the source calls inconclusive (neither active nor inactive); the mix of calls is not that of the screen. The call rests on the fitted dose curve; in most records, active means well fitted inhibition curve with a large enough effect; inconclusive means small, poorly fitted or top-dose-only effect; inactive means flat fitted curve, though single readings scatter. Potencies of inconclusive entries are doubtful fits and often do not repeat.

Each compound was assayed against Luciferin 4-monooxygenase (Photinus pyralis) (UniProt P08659) (assay: qHTS profiling assay for firefly luciferase inhibitor/activator using purifed enzyme and Km concentrations of substrates (counterscreen for miR-21 project)). Settings: purified FLuc, luminescence inhibition; series mostly up to 57.5 µM.
Summary of the method: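 Biochemical qHTS of compounds, final roughly 60 µM downward over six points, against 10 nM purified firefly luciferase using Km concentrations of substrates (10 uM D-luciferin, 10 uM ATP) in Tris acetate pH 7.5 buffer; luminescence output.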
Further: nearly all actives have a fitted effect of over 55% in size.
Potency means the concentration at half of the fitted maximal effect; tags describe the fitted curve by direction and shape.

Chain of UniProt P08659 (P08659 whole entry, looked up): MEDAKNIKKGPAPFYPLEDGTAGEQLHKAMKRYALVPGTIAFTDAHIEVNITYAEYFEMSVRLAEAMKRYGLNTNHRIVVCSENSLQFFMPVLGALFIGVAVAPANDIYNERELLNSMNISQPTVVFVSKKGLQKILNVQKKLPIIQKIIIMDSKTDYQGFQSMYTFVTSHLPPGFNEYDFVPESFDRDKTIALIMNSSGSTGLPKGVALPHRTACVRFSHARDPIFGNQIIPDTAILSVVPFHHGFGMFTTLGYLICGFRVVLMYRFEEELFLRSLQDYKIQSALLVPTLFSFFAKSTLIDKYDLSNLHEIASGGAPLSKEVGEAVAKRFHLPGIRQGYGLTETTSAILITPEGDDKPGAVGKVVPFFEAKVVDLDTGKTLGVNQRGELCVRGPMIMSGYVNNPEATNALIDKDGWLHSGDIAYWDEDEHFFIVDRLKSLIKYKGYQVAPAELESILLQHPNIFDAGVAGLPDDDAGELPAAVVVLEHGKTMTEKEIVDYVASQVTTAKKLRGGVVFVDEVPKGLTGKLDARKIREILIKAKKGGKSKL

Row | Compound | Potency
1 | O=C(O)Cc1sc(-c2ccccc2)nc1-c1cccs1 | active: 23.9 µM
2 | CC(NC(=O)Nc1ccc2c(c1)OCO2)C1CCCO1 (stereo not given) | active: 16.9 µM
3 | Cn1c(=O)cc(SCC(=O)NCc2ccc(F)cc2)c2cc(Cl)ccc21 | inactive
4 | O=C1NC(=O)/C(=C\c2ccc(Oc3ccc([N+](=O)[O-])cn3)cc2)S1 | inconclusive: 37.9 µM [inhibitor, partial curve, poor fit]
5 | O=C(Nc1nnc(SCc2ccccc2)s1)c1ccco1 | inconclusive: 23.9 µM [inhibitor, single point]
6 | Cc1ccc2nc(-c3ccsc3)c(NC3CCCC3)n2c1 | inconclusive: 7.57 µM [inhibitor, partial curve, poor fit]
7 | O=C(O)c1cccc2c1/C(=N/Nc1ccc([N+](=O)[O-])cc1[N+](=O)[O-])c1ccccc1-2 | inactive
8 | CCOc1ccc(-c2nnc(SCC(=O)Nc3ccc(C)cc3C)o2)cc1 | inconclusive: 9.53 µM [inhibitor, partial curve]
9 | CC1=C(c2ccc(C(C)C)cc2)S(=O)(=O)N=C1N1CCC(C(=O)Nc2ccc(C)cc2)CC1 | inactive
10 | COc1ccc(C2/C=C\CN(C(=O)Nc3ccccc3-c3ccccc3)CC(=O)N2Cc2ccc(F)cc2)cc1 (stereo not given) | inactive
11 | CC(=O)C1=C(NC(=O)c2ccccc2F)C[C@@H]2[C@H]1C2(C)C | inconclusive: 21.3 µM [inhibitor, single point]
12 | Nc1c(C(=O)Nc2ccc3c(c2)OCCO3)nnn1Cc1cccc(Cl)c1 | inconclusive: 2.69 µM [inhibitor, partial curve]
13 | O=C1NC(=O)C(c2cccs2)(c2cccs2)N1 | inactive
14 | CCN1C(=O)/C(=C\N2CCCCCC2)SC1=S | inconclusive: 23.9 µM [inhibitor, partial curve]
15 | CC(=O)c1ccc(-c2ccc(C(=O)N3CCC(C(N)=O)CC3)o2)cc1 | inconclusive: 23.9 µM [inhibitor, single point]
16 | CCc1nn(CC(=O)NCc2ccccc2)c(=O)c2cccn12 | inconclusive: 16.9 µM [inhibitor, partial curve, poor fit]
17 | O=C(NCCS(=O)(=O)N1CCN(c2cccc(Cl)c2)CC1)C(c1ccccc1)c1ccccc1 | inactive
18 | Cc1cc(C)n(-c2nc(NCc3cccnc3)c3c4c(sc3n2)COC(C)(C)C4)n1 | inconclusive: 26.9 µM [inhibitor, single point]
19 | CC(C)NC(=O)CSc1nnc(-c2ccc(C(C)(C)C)cc2)n1C | inconclusive: 30.1 µM [inhibitor, partial curve, poor fit]
20 | COc1cccc(NC(=O)CCS(=O)(=O)c2cccs2)c1 | inconclusive: 23.9 µM [inhibitor, partial curve]
21 | COc1ccc(NC(=O)Cn2c(=O)n(-c3ccccc3)c(=O)c3oc4ccccc4c32)c(OC)c1 | inconclusive: 1.51 µM [inhibitor, partial curve, poor fit]
22 | Cc1nc(-c2ccc(C(=O)Nc3cc(S(N)(=O)=O)ccc3C)cc2)cs1 | inconclusive: 26.9 µM [inhibitor, partial curve]
23 | Cc1ccccc1C(=O)Oc1cccc2c(O)cccc12 | inconclusive: 21.3 µM [inhibitor, partial curve, poor fit]

Row | Compound | Potency
24 | O=C(Nc1ccc2c(c1)CCC2)Nc1ccc2c(c1)OCO2 | inconclusive: 3.01 µM [inhibitor, partial curve, poor fit]
25 | CCOc1cc(/C=C2/SC(=S)N(CC(=O)O)C2=O)ccc1OC(=O)c1cccs1 | active: 16.9 µM
26 | Cc1coc2c1c(C)cc1oc(=O)c(CC(=O)N[C@@H](C)C(=O)O)c(C)c12 | inconclusive: 37.9 µM [inhibitor, single point]
27 | COc1ccc(-c2cc3nc(C)cc(-c4ccc(OC)cc4)n3n2)cc1 | inconclusive: 26.9 µM [inhibitor, single point]
28 | O=C(CCCCCNC(=O)c1ccccc1)N/N=C/c1ccccc1O | inconclusive: 37.9 µM [inhibitor, partial curve, poor fit]
29 | CS(=O)(=O)Nc1ccc(C(=O)NCCc2ccccc2)cc1 | inconclusive: 23.9 µM [inhibitor, single point]
30 | CCOC(=O)CCc1c(C)c2ccc(OCC(=O)N(CC)CC)c(C)c2oc1=O | inactive
31 | CCCCc1ncc(CN2CCC(n3nccc3NC(=O)c3ccccc3Cl)CC2)[nH]1 | inactive
32 | O=C(NC1CCCN(Cc2ccccc2F)C1)c1cccs1 (stereo not given) | inactive
33 | O=C(Nc1nccs1)c1ccc(COc2c(F)c(F)cc(F)c2F)cc1 | inactive
34 | Cn1c(-c2c(N)n(CCc3ccccc3)c3nc4ccccc4nc23)nc2ccccc21 | inactive
35 | CCN(C(=O)c1ccco1)c1nc(CC(=O)Nc2ccc(Cl)cc2)cs1 | inconclusive: 19 µM [inhibitor, single point]
36 | O=C(c1cccs1)N1CCn2c1nc1ccccc12 | inconclusive: 16.9 µM [inhibitor, partial curve, poor fit]
37 | COc1ccccc1CNC(=O)CN1C(=O)c2cccc(N)c2C1=O | inconclusive: 23.9 µM [inhibitor, single point]
38 | CC(C)(C)C(=O)CSc1nc2ccccc2o1 | inconclusive: 30.1 µM [inhibitor, single point]
39 | Cc1ccc(CNC(=O)c2ccc(OCC3CCCO3)cc2)cc1 (stereo not given) | inconclusive: 26.9 µM [inhibitor, single point]
40 | CCOc1cccc(-c2nnc3sc(COc4ccccc4)nn23)c1 | inconclusive: 23.9 µM [inhibitor, partial curve, poor fit]
41 | CCc1ccc(NC(=O)c2cnc3c(-c4ccccc4)c(C)nn3c2C)cc1 | inactive
42 | CC(C)=CCN1CCN(Cc2cnc(C)s2)CC1CCO (stereo not given) | active: 6.75 µM
43 | CC(=O)NNS(=O)(=O)c1scc(S(=O)(=O)c2ccc(Cl)cc2)c1C | inactive
44 | O=C(COC(=O)c1ccccc1)c1ccc2c(c1)OCCO2 | inconclusive: 0.0338 µM [inhibitor, full curve, poor fit]
45 | O=C(/C=C/c1ccco1)Nc1cccc(S(=O)(=O)N2CCOCC2)c1 | active: 16.9 µM
